The structures appear in SMILES notation. The campaign covered roughly 43,000 compounds. About 200 (0.47%) were called active. About 12% were inconclusive and are not listed. The call rests on the fitted dose curve; in most records, active means well fitted cell-killing curve with a large enough effect; inconclusive means small, poorly fitted or top-dose-only effect, or effect the other way; inactive means flat fitted curve, though single readings scatter. The list shows a part of the results.
On the % scale 0 is the no-effect control and ±100 the full control effect.

A short description of the experiment: Cell viability qHTS assay in S16 Pmp22-F2sN cells. Further: nearly all actives have a fitted effect of over 65% in size. Particulars: S16 Pmp22-F2sN Schwann cells viability, CellTiter-Glo, 24 h; series mostly up to 57.5 µM; activity change, negative = cytotoxicity: at the top concentration. In outline:
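S16 Pmp22-F2sN Schwann cells (500-1,000/well) in phenol-red-free DMEM with 10% FBS received 23 nL compound by pin tool for 24 h at 37 °C. Viability was then read as CellTiter-Glo luminescence after 15 min at room temperature.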
Take `COC(=O)c1ccc(C2C(C(=O)Nc3ccccc3)=C(C)Nc3nc4ccccc4n32)cc1` (stereo unspecified): the “activity change, negative = cytotoxicity” value was inactive: 0.0463%.
The value for `CCc1nc(Oc2cccc(F)c2)c2oc3ccccc3c2n1` was inactive: 3.15%; that for `Cc1cc2oc(C(=O)Nc3ccc(S(=O)(=O)N4CCCCCC4)cc3)cc(=O)c2cc1C` was inactive: -0.281%; that for `CCN(CC)c1ccc(NS(=O)(=O)c2cc3[nH]c(=O)c(=O)[nH]c3cc2C)c(C)c1` was inactive: 14.3%.
The value for `CCN(CC)c1ccc(NC(=O)CSc2nc(-c3cccs3)cc(C(F)(F)F)n2)cc1` was inactive: -0.273%; that for `Cc1ccc(NC(=O)Nc2nnc(N(C)Cc3ccccc3)s2)c(C)c1` was inactive: -17.7%; that for `CC(C)CCNC(=O)CN1N=C(c2ccc(Cl)cc2)CCC1=O` was inactive: -1.04%.
Take `COc1ccc(CN2C(=O)c3ccccc3C2C(=O)NCCc2ccccc2)c(OC)c1` (stereo unspecified): the “activity change, negative = cytotoxicity” value is inactive: 2.8%.
On to `CC1=C(C(=O)Nc2ccc(C)cc2C)C(c2cccs2)n2nc(SCc3ccccc3Cl)nc2N1` (stereo unspecified), for which the “activity change, negative = cytotoxicity” value is inactive: 8.2%.
For `COc1cccc(N2CCN(C(=O)Cn3c(-c4cccs4)cc4ccccc43)CC2)c1`, the “activity change, negative = cytotoxicity” value is inactive: 3.55%.
In the case of `O=C(Nc1cccc(C(F)(F)F)c1)c1cc2ccc3cccnc3c2[nH]1`, the “activity change, negative = cytotoxicity” value is inactive: 0.731%.
The value for `Cc1ccc(-c2nc(C)c(CCNS(=O)(=O)c3ccc(F)c(C(F)(F)F)c3)s2)cc1` was inactive: 6.46%; that for `CCn1cc(C(=O)N2CCN(c3ccccc3F)CC2)c(=O)c2cc(S(=O)(=O)N(C)C)ccc21` was inactive: 2.05%.
Consider `O=c1cc(-c2ccccc2)n2c(SCc3ccc(F)cc3)nnc2[nH]1`, for which the “activity change, negative = cytotoxicity” value was inactive: -2.23%.
As for `CCOC(=O)c1c(C)[nH]c(CCC(=O)NCc2ccc(N(C)C)cc2)c1C`, the “activity change, negative = cytotoxicity” value is inactive: 11.8%.
As for `CCN(Cc1ccccc1)C(=O)Cn1c(=O)n(-c2ccc(C)c(C)c2)c(=O)c2c(C)c(C)sc21`, the “activity change, negative = cytotoxicity” value is inactive: -18.3%.
In the case of `O=c1oc2ccccc2cc1-c1cn2cc(Cc3ccc(Cl)cc3)sc2n1`, the “activity change, negative = cytotoxicity” value is inactive: -2.04%.
The value for `Cc1cccc(-c2nc3c4ccccc4nc(N4CCN(c5cc(C)ccc5C)CC4)n3n2)c1` was inactive: 2.04%; that for `COc1cccc(C(=O)Nc2cccc(-c3cn4c(C)csc4n3)c2)c1OC` was inactive: 18.1%.
The value for `O=C(Nc1cccc(Cl)c1)c1cc2c(=O)[nH]c3ccccc3c2s1` was inactive: -12.8%; that for `Cc1cccc(N2CCN(C(=O)CCn3c(=O)c4cccn4c4cccnc43)CC2C)c1` (stereo unspecified) was inactive: -13.4%.
The value for `Cc1nnc(N2CCCC(C(=O)NCCc3ccc(Cl)cc3)C2)c2nn(-c3ccccc3)c(C)c12` (stereo unspecified) was inactive: -7.67%.
Take `O=C(Nc1ccc(-c2cn3cccnc3n2)cc1)c1cc(Br)ccc1Cl`: the “activity change, negative = cytotoxicity” value is inactive: 12.6%.
The value for `CCc1ccccc1NC(=O)c1cnc2sc(N3CCCC3)nn2c1=O` was inactive: -3.46%.
Turning to `CCOc1ccc(-c2nn(CC(=O)NC3CCCC3)c3c2cnc2ccc(F)cc23)cc1`, the “activity change, negative = cytotoxicity” value is inactive: 23.3%.
For `Cc1nc(-c2cccnc2)sc1CCNS(=O)(=O)c1ccc(F)cc1`, the “activity change, negative = cytotoxicity” value is inactive: -6%.
As to `COCCNC(=O)c1cccc(-n2c(C)nc3cccnc32)c1`, the “activity change, negative = cytotoxicity” value was inactive: -1.06%.
The value for `COc1ccc2c(CNCCc3ccco3)c(C(=O)O)n(Cc3ccccc3)c2c1` was inactive: 15.1%; that for `COc1ccc(NC(=O)CSc2nc3ccccc3n2Cc2cccc(OC)c2)cc1` was inactive: -0.336%.
The value for `CCOc1ccc(NC(=O)C2CCN(c3nnc(-n4c(C)ccc4C)s3)CC2)cc1` was inactive: -2.82%.
The value for `COc1cc(OC)cc(-n2c(=O)c3sccc3n(Cc3c(C)cc(C)cc3C)c2=O)c1` was inactive: 0.924%; that for `Cc1ccc(NC(=O)c2cc(S(=O)(=O)N3CCc4ccccc43)ccc2F)cc1Cl` was inactive: 12.4%.
On to `COc1ccc(-c2cc(C(F)(F)F)nc(SCC(=O)NCCc3ccccc3)n2)cc1OC`, for which the “activity change, negative = cytotoxicity” value is inactive: -18.3%.
The value for `CCc1sc(Nc2cccc(C)c2C)nc1-c1cc2cccc(OC)c2oc1=O` was inactive: 28.2%; that for `CN1C(=O)Cc2cc(S(=O)(=O)CCC(=O)Nc3ccc(F)c(Cl)c3)ccc21` was inactive: -29.9%.
The value for `O=C(Nc1cc(F)ccc1F)N1CCC(CN2CCCC2)CC1` was inactive: 14.7%; that for `Cc1ccc2c(=O)c(C(=O)c3cccc(Cl)c3)cn(CC(=O)Nc3ccc4c(c3)OCCO4)c2n1` was inactive: -5.03%; that for `Cn1cc(S(=O)(=O)c2cccc(Cl)c2)c(=O)c2cc(F)c(N3CCN(c4ccccc4)CC3)cc21` was inactive: 4%.
The value for `O=C(CSc1nnc(NC(=O)Nc2ccccc2)s1)Nc1cccc(F)c1` was inactive: 7.03%; that for `COc1ccc(CCCc2nnc(SCC(=O)Nc3ccc(OC)cc3)o2)cc1` was inactive: 2.59%; that for `COc1cc(C2c3c(-c4cc(C)ccc4O)n[nH]c3C(=O)N2CCCO)ccc1OCCC(C)C` (stereo unspecified) was inactive: 9.36%.
For the molecule `CCc1ccccc1Nc1cc(C(=O)NC(C)c2ccccc2)c2ccccc2n1` (stereo unspecified), the “activity change, negative = cytotoxicity” value is inactive: -23.6%.
The value for `CCCc1nn2c(=O)cc(COC(=O)c3ccccc3NC(=O)c3ccc(Cl)cc3)nc2s1` was inactive: -4.65%.
The value for `CCOC(=O)c1ccccc1NC(=O)N1CCC(CN2CCCCC2)CC1` was inactive: 3.71%; that for `CCOc1ccc(NC(=O)CN2CCCN(Cc3cc(C)ccc3C)S2(=O)=O)cc1` was inactive: 2.19%.
The value for `Cc1ccc(NC(=O)C(C)Sc2nc(=O)cc(N)n2-c2ccccc2)cc1` (stereo unspecified) was inactive: -18.2%; that for `CCCC(=O)Nc1ccc(-c2nc3ncccc3o2)cc1C` was inactive: -3.54%.
For `CCOC(=O)c1cccc(NC(=O)CCn2nc(C)c(S(=O)(=O)N3CCCCC3)c2C)c1`, the “activity change, negative = cytotoxicity” value is inactive: -20.8%.
The value for `Cc1ccc(C)c(NC(=O)c2cc(S(=O)(=O)N3CCCCCC3)ccc2F)c1` was inactive: 7.45%.
On to `CC1=C(C(=O)Nc2ccccc2)C(c2cccs2)n2nc(SCc3ccccc3F)nc2N1` (stereo unspecified), for which the “activity change, negative = cytotoxicity” value was inactive: -0.881%.
The value for `COc1cc2c(=O)n(CCC(=O)NCC3CCCO3)c(=O)n(CC(=O)Nc3ccc(C)c(C)c3)c2cc1OC` (stereo unspecified) was inactive: -0.682%.
With `Cc1ccc(OCC(=O)N(Cc2ccco2)Cc2ccc(C)o2)cc1`, the “activity change, negative = cytotoxicity” value was inactive: -13.4%.
As to `COc1ccc(-c2cc(C(F)(F)F)n3nc(C(=O)Nc4ccccc4SC)cc3n2)cc1OC`, the “activity change, negative = cytotoxicity” value was inactive: 3.38%.
The value for `CCC(C)NC(=O)c1nn(-c2ccc(C)cc2)c(=O)n(C)c1=O` (stereo unspecified) was inactive: 1.01%.
The value for `COCCCNC(=O)C1CCN(c2nn3cc(-c4ccc(F)cc4)nc3s2)CC1` was inactive: 5.95%; that for `COc1cccc(CCNC(=O)c2c(O)nc3ccccn3c2=O)c1` was inactive: 0.0232%; that for `CC(C)c1cccc(OCCn2c(-c3ccc(Cl)cc3)nc3ccccc3c2=O)c1` was inactive: 4.03%.
The value for `CC1=C(C(=O)NCc2ccc(Cl)cc2)C2(CCCCC2)OC1=O` was inactive: 3.18%.
With `CCn1cc(S(=O)(=O)c2cccc(Cl)c2)c(=O)c2cc(F)c(N3CCN(c4ccccc4)CC3)cc21`, the “activity change, negative = cytotoxicity” value was inactive: 2.38%.
The value for `Cc1ccc(C)n1-c1nnc(N2CCCC(C(=O)NCc3cccc(Cl)c3)C2)s1` (stereo unspecified) was inactive: -7.09%; that for `CCc1ccc(-n2c(Cc3ccccc3)nnc2SCc2nc(-c3cccs3)no2)cc1` was inactive: -27.1%; that for `COc1cc(OC)c(NC(=O)Cn2c(=O)oc3cc(S(=O)(=O)N4CCCC4)ccc32)cc1Cl` was inactive: -1.7%.
The value for `Cc1ccc(CN2C(=O)c3oc4ccc(C)cc4c(=O)c3C2c2ccc(O)cc2)cc1` (stereo unspecified) was inactive: -9.19%; that for `COc1ccc(NS(=O)(=O)c2ccc3[nH]c4c(c3c2)CCCC4)cc1Cl` was inactive: -25.8%; that for `CCCCCn1c(-c2ccc(OC)c(OC)c2)nc2ccccc21` was inactive: -20.8%.
Consider `Cc1ccc(Cl)cc1N1CCN(S(=O)(=O)c2ccc3c(c2)CCCN3C(=O)C2CCC2)CC1`, for which the “activity change, negative = cytotoxicity” value was inactive: 29.1%.
Regarding `O=C(NCCc1ccccc1)c1cc(Sc2cccc(Cl)c2)nc2ccccc12`, the “activity change, negative = cytotoxicity” value was inactive: -0.93%.
The value for `CCOc1ccc(C(=O)NCCS(=O)(=O)N2CCN(c3ccccc3F)CC2)cc1OCC` was inactive: 2.34%; that for `O=C(Cn1ncc2c([nH]c3ccccc32)c1=O)NCC1CCN(Cc2ccc(F)cc2)CC1` was inactive: 11.7%; that for `CCOc1ccccc1CNC(=O)C1CCN(S(=O)(=O)c2ccc3c(ccn3C)c2)CC1` was inactive: -17%.
The value for `CCOC(=O)c1c(S(=O)(=O)NCC(=O)Nc2cc(C)ccc2C)c(C)n(C)c1C` was inactive: 0.113%.
The value for `CCc1nn(Cc2cc(C)ccc2C)c(=O)c2cc3cc(C)ccc3n12` was inactive: -3.38%; that for `Cc1ccc(NS(=O)(=O)c2ccc3c(c2)CCCN3C(=O)C2CCC2)c(C)c1` was inactive: -17.4%; that for `COc1ccc(Cl)cc1-n1nnc(-c2nsc(NC(=O)c3ccccc3Cl)n2)c1C` was inactive: 17.5%.
For `CCCSc1nc2sc3c(c2c(=O)n1Cc1ccccc1)CC(C)(CC)OC3` (stereo unspecified), the “activity change, negative = cytotoxicity” value is inactive: 22.4%.
The value for `COc1ccc(C2(CNC(=O)C(=O)Nc3ccc(F)cc3)CCCC2)cc1OC` was inactive: -5.74%; that for `CCc1ccccc1NC(=O)C(=O)NCC(c1cccnc1)N1CCN(c2ccccc2F)CC1` (stereo unspecified) was inactive: -23.2%; that for `Cc1ccc(-c2cn3c(n2)sc2cc(C(=O)NC(C)C45CC6CC(CC(C6)C4)C5)ccc23)cc1` (stereo unspecified) was inactive: 1.38%.
`CCOC(=O)C1CCN(S(=O)(=O)c2csc(C(N)=O)c2)CC1`: the “activity change, negative = cytotoxicity” value was inactive: 15.7%.
Consider `COc1ccc(N2CCN(C(=O)c3cc4c(s3)-c3ccccc3OC4)CC2)cc1`, for which the “activity change, negative = cytotoxicity” value is inactive: -0.061%.
The value for `COc1ccc(N2CC(NC(=O)c3ccc(Br)o3)CC2=O)cc1` (stereo unspecified) was inactive: 4.42%; that for `CCc1nn2c(=O)cc(COC(=O)c3ccco3)nc2s1` was inactive: -27.8%.
The value for `CCOC(=O)N1CCc2c(sc(NCc3cc(OC)c(OC)cc3OC)c2C(=O)Nc2ccc(OCC)cc2)C1` was inactive: 7.83%.
For `CCc1ccc(-n2c(=O)c3cccnc3n2CC(=O)Nc2cc(F)ccc2F)cc1`, the “activity change, negative = cytotoxicity” value was inactive: 5.78%.
The value for `CCN(CC)C(=O)Cn1cc(SCC(=O)Nc2ccccc2C)c2ccccc21` was inactive: -4.54%; that for `Cc1cccc(-c2nc(SCCCOc3ccc(Cl)c(C)c3)n3[nH]c(=O)cc3n2)c1` was inactive: 2.13%.
The value for `CCOC(=O)c1cccc(NC(=O)NCc2ccc3c(c2)CCN3C(=O)c2ccccc2)c1` was inactive: 12%; that for `CCOC(=O)c1ccc(-c2ccc(/C=C(\C#N)C(=O)Nc3ccc(OCC)cc3)o2)cc1` was inactive: 0.908%; that for `CCN1CCN(c2ncc3c(n2)CCN(Cc2ccc(OC(C)C)cc2)C3)CC1` was inactive: 3.9%.
The value for `CCCCN(CC)CCCNC(=O)CCN1N=C(c2ccc(OC)cc2)CCC1=O` was inactive: 5.44%.
For the molecule `COc1ccccc1NC(=O)C(=O)NCCc1csc(-c2cccc(F)c2)n1`, the “activity change, negative = cytotoxicity” value is inactive: 16.6%.
On to `CCOC(=O)c1c(S(=O)(=O)N2CCCC(C(=O)Nc3cccc(Cl)c3)C2)c(C)n(C)c1C` (stereo unspecified), for which the “activity change, negative = cytotoxicity” value was inactive: -13.9%.
Consider `Cc1ccc(OCC(=O)Nc2nnc(SCc3cc(=O)c4ccccc4[nH]3)s2)cc1`, for which the “activity change, negative = cytotoxicity” value is inactive: -2.18%.
Regarding `Cc1cc(N2CCCCC2)nc2ccc(NC(=O)c3cccc(Cl)c3)cc12`, the “activity change, negative = cytotoxicity” value is inactive: 9.1%.
For the molecule `CCOc1ccc(CNS(=O)(=O)c2cc3c(cc2C)NC(=O)CO3)cc1OC`, the “activity change, negative = cytotoxicity” value is inactive: 1.01%.
The value for `COc1cccc(CNC(=O)c2cc3c(s2)-c2ccccc2OC3)c1` was inactive: 11.3%.
